Measured values from article PMC4336329 (PLoS ONE, 2015).
Hit rate of the full screen: of about 310,000 compounds, about 14,000 (4.5%) showed an effect of 50% or more. The effect is printed as a negative number. The list shows a part of the results.

These compounds were tested against human ether-à-go-go-related gene (hERG) potassium channel (human, UniProt Q12809) (assay: primary screen, population patch clamp on CHO cells stably expressing hERG).
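Also: peak tail current of the secondary pulse compared with the same well before compound.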

Chain of human ether-à-go-go-related gene (hERG) potassium channel (Q12809 whole entry, looked up): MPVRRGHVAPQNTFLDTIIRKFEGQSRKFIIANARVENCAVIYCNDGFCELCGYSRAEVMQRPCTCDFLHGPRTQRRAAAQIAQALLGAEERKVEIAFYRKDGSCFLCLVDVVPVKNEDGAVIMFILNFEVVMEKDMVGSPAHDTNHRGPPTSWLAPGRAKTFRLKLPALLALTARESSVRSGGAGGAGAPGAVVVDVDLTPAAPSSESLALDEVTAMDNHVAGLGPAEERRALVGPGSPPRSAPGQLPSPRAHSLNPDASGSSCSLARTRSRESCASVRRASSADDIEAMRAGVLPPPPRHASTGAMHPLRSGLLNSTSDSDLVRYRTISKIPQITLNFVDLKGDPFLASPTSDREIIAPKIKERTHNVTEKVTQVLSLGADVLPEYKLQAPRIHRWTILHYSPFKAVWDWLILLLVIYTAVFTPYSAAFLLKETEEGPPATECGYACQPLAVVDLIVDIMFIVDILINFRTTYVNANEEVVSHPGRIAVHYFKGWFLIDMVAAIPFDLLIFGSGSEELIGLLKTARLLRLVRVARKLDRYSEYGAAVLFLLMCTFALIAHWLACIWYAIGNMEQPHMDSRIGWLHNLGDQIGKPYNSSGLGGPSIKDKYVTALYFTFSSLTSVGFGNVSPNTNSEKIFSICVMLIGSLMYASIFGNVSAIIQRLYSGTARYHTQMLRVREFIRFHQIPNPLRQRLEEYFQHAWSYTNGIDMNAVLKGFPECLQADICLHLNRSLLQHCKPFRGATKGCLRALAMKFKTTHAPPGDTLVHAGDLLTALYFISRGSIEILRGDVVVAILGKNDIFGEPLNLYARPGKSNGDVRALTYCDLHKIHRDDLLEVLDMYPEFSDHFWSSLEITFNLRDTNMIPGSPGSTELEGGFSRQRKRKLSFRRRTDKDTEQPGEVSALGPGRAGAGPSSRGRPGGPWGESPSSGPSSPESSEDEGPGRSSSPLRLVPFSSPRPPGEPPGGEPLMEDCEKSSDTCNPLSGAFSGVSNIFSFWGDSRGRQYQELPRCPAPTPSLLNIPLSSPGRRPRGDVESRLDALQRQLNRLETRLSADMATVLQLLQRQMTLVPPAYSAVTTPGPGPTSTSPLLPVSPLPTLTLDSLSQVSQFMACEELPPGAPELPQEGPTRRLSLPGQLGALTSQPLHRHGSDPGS

In order of falling “hERG current change (%, negative = inhibition) at 10uM” value:
1. COc1cnc(-c2ccccc2)nc1Sc1ccccc1  39.9%
2. Cc1oc(-c2cc(Cl)cc(Cl)c2)cc1C(=O)NCCc1ccccc1  34.4%
3. O=C(O)c1[nH]c2ccccc2c1CC(=O)N1CCN(c2ccccc2)CC1  30%
4. Cc1noc(C)c1COc1ccc(C(=O)NCCc2ccccn2)cc1  29%
5. C=CCn1c(-c2ccccc2OC)n[nH]c1=S  28.2%
6. COc1ccc(O)c(/C=N/N=C2/C(=O)Nc3ccccc32)c1  27.8%
7. COc1ccc(-n2nc(C(C)=O)c(=O)[nH]c2=O)cc1  23.8%
8. CSc1cccc(NS(=O)(=O)c2ccc(-c3coc(C)n3)cc2)c1  22.6%
9. NS(=O)(=O)c1cccc(NC(=O)COC(=O)Cn2cnc3ccccc32)c1  19.8%
10. Cc1nc2oc3ccc(F)cc3c(=O)c2cc1C(=O)NC(C)(C)C  19.6%
11. Cc1nc(SCC(=O)N2CCCCCC2)[nH]c(=O)c1C  19.5%
12. Cn1c(SCc2ccccn2)nnc1-c1ccccc1  18.2%
13. O=c1ccn(CCCBr)c(=O)[nH]1  18%
14. CCOc1cc(/C=N\n2nnnc2N)ccc1O  16.8%
15. COC(=O)c1cccc(CSc2nc(-c3ccccc3)c(C#N)c(=O)[nH]2)c1  16.8%
16. O=C(Nc1ccc(Cl)cc1F)C1CCN(S(=O)(=O)c2cccc3nonc23)CC1  16.4%
17. COc1ccc(-c2cc(-c3cc(C)ccc3O)[nH]n2)cc1  15.6%
18. CCCCCn1c(SCc2cccc(C)c2)nc2c1c(=O)[nH]c(=O)n2C  15.5%
19. O=[N+]([O-])C(=c1ccc2c(c1)N1C3=C(CCCC3)CC3CCCCC31N=2)[N+](=O)[O-] (stereo not drawn)  14.5%
20. CCc1c(C)sc(NC(=O)c2cc(-c3ccc(OC)c(OC)c3)on2)c1C#N  14%
21. Cc1onc(-c2ccccc2)c1C(=O)NCc1ccc(Cl)cc1  13.8%
22. COc1cc(C2C(C#N)=C(N)N(N(C)C)C3=C2C(=O)CCC3)ccc1O (stereo not drawn)  13.8%
23. CCCCN(C(=O)c1ccc(C)cc1)c1c(N)n(CCC)c(=O)[nH]c1=O  13.4%
24. Cc1cc2cc(CNS(=O)(=O)c3ccc4ccccc4c3)ccc2n1C  13.1%
25. CC(=O)OC1CC[C@]2(C#N)[C@H]3CC[C@]4(C)[C@H](C5C=CC(=O)O5)CCC4(O)C3CCC2(O)C1 (stereo partly drawn)  12.9%
26. N#CCC(=O)Nc1ccc(C(=O)OCC(=O)N(C2CCCCC2)C2CCCCC2)cc1  12.2%
27. CCOP(=O)(OCC)C(Nc1cccc(C(F)(F)F)c1)c1ccc(C)cc1 (stereo not drawn)  11.9%
28. CCN(CC)S(=O)(=O)c1ccc(/C(O)=C2/C(=O)C(=O)N(CCOC)C2c2ccccc2)cc1 (stereo not drawn)  11.6%
29. CCCCN(CC)C(=O)c1ccc2c(c1)OCO2  10.8%
30. CC1(C)CC(=O)C2=C(C1)OC1=C(C(=O)CC(C)(C)C1)C2c1cc([N+](=O)[O-])cc([N+](=O)[O-])c1O  10.6%
31. COc1cc(OC)cc(C(=O)Nn2c(C)nc3ccccc3c2=O)c1  9.93%
32. CCN1C(=O)NC(c2ccc(Cl)cc2)C2=C1CCCC2=O (stereo not drawn)  9.6%
33. CCCCC(NC(=O)c1cccc(Br)c1)C(=O)O (stereo not drawn)  9.42%
34. O=C(COC(=O)c1ccccc1Br)Nc1ccc(F)cc1  9.07%
35. O=C(NCCOc1ccccc1Cl)c1cccc2c1C(=O)c1ccc(Cl)cc1S2(=O)=O  8.93%
36. CCC(C)NC(=S)Nc1ccccc1OC (stereo not drawn)  8.17%
37. CSc1ccccc1NC(=O)CN(C)Cc1c(O)ccc2ccccc12  7.52%
38. Cc1nn(C)c(C)c1/C=N/N=C1\CCC2C3CCc4cc(O)ccc4C3CCC12C (stereo not drawn)  7.41%
39. COc1ccc(NC(=O)c2cc3nc(-c4ccccc4)cc(-c4ccccc4)n3n2)c(OC)c1  7.38%
40. O=C(CSc1ccc(Cl)cc1)NNC(=O)c1ccco1  7.31%
41. Cc1cccc(C)c1NC(=O)C1CC(=O)N(C(C)C)C1 (stereo not drawn)  6.92%
42. CC(C)OP(=O)(Oc1ccc(C(O)C(Cl)(Cl)Cl)cc1)OC(C)C (stereo not drawn)  6.54%
43. CCC(C)N1CCC(Oc2ccc(C(=O)NCc3ccccn3)cc2)CC1 (stereo not drawn)  6.23%
44. COc1ccc(CCNC(=O)C(=O)NCC2OCCN2S(=O)(=O)c2ccccc2)cc1OC (stereo not drawn)  5.8%
45. Cc1ccc(S(=O)(=O)N2CCN(C(=O)c3ccc(OCc4c(C)noc4C)cc3)CC2)cc1  4.68%
46. CN(C(=O)Nc1ccccc1)n1cnc2ccccc2c1=O  4.3%
47. CCCS(=O)(=O)c1cnc(C2COc3ccccc3O2)nc1N (stereo not drawn)  4.08%
48. COC(=O)C1(C)NC(c2ccc(OC)cc2)C2C(=O)N(c3ccccc3)C(=O)C21 (stereo not drawn)  3.89%
49. C/C(=N\NC(=O)C(O)c1ccccc1)c1ccc(Br)s1 (stereo not drawn)  1.82%
50. Cc1ccc(NC(=O)CCn2ccc([N+](=O)[O-])n2)nc1  1.42%
51. COc1ccc(S(=O)(=O)N(C)c2ccc(C(=O)NCc3ccccn3)cc2)cc1  0.789%
52. CCC(C)NS(=O)(=O)c1ccc(NC(C)=O)cc1 (stereo not drawn)  0.712%
53. Cc1ccc(C(=O)N2CCCC(C(=O)c3ccc(Cl)cc3C)C2)cn1 (stereo not drawn)  -1.41%
54. CC(=O)CCC(=O)NC1CCCc2c1cnn2-c1ccc(C(C)(C)C)cc1 (stereo not drawn)  -1.5%
55. C=CCn1c(=NC(=O)C2CC2)sc2cc(NC(C)=O)ccc21  -1.61%
56. O=C(NCc1ccc(Cl)cc1)c1ccc(Cn2cc(C(F)(F)F)ccc2=O)cc1  -1.69%
57. CC(=O)Nc1ccc(S(=O)(=O)NCCc2cc3c(C)ccc(C)c3[nH]c2=O)cc1  -1.92%
58. COc1ccc(-c2nc3ccccc3o2)cc1OC  -2.33%
59. CCOc1ccccc1C(=O)N(Cc1ccccc1)Cc1cc2cc3c(cc2[nH]c1=O)OCCO3  -2.49%
60. CCOC(=O)C1CCN(C(=O)C2CCN(S(=O)(=O)CC)CC2)CC1  -2.7%
61. CCOC(=O)N/N=C\c1ccc(-c2cccc(C(F)(F)F)c2)o1  -2.79%
62. COc1ccc(CNC(=O)c2cnn3c(C(F)F)cc(C)nc23)cc1  -3.22%
63. Cc1ccnc(NC(=O)c2ccc(OCC3CCCO3)cc2)c1 (stereo not drawn)  -3.31%
64. CCOc1ccccc1/C=N/Nc1ccccc1[N+](=O)[O-]  -5.13%
65. COc1ccc(N2CCN(CCNC(=O)CCS(=O)(=O)c3cccc4nsnc34)CC2)cc1  -5.54%
66. Cc1ccc2cc3c(NC(=O)c4ccco4)nn(C)c3nc2c1  -5.62%
67. CCN(CC)S(=O)(=O)c1ccc(C)c(NC(=O)COC(=O)CN2C(=O)NC(C)(C)C2=O)c1  -5.68%
68. CCOC(=O)c1sc2nc(CSCC(=O)OCc3ccc(C(=O)OC)o3)[nH]c(=O)c2c1C  -8.69%
69. CCOc1ccccc1C(=O)NC(CO)C(=O)O (stereo not drawn)  -10.1%
70. CC(C)(C)/C(Cn1cncn1)=N\OC(=O)Nc1ccc(Cl)cc1  -10.6%
71. COc1cccc(C(=O)COc2cccc(NC(=O)c3cccc([N+](=O)[O-])c3)c2)c1  -11.2%
72. COc1ccc(NC2CCCN(C(=O)c3ccc(CSC)o3)C2)cc1OC (stereo not drawn)  -12.6%
73. O=C(NC(N1CCOCC1)C(Cl)(Cl)Cl)c1cc([N+](=O)[O-])cc([N+](=O)[O-])c1 (stereo not drawn)  -13.8%
74. COc1cc(NC(=O)COc2ccccc2[N+](=O)[O-])ccc1NC(=O)c1ccco1  -14.3%
75. Cc1ccc(/C=C/C(=O)NCc2ccc3c(c2)OCO3)o1  -17.6%
76. CC(C)(C)c1ccc(C(=O)CC(=O)c2cc(Cl)ccc2O)cc1  -19.9%
77. CCCCn1c(N)c(N(CC(C)C)C(=O)C2CC(=O)N(Cc3ccco3)C2)c(=O)[nH]c1=O (stereo not drawn)  -20.9%
78. Cc1cc(F)ccc1S(=O)(=O)Nc1ccc(C(=O)N2CCCCCC2)cc1  -27.6%
79. O=C(Nc1ccc(Cl)cc1)Nc1nccs1  -30.1%
80. Cn1c(SCC(=O)N2CCCC2)nc2ccccc2c1=O  -33.3%
81. O=C(c1ccc(NC(=S)Nc2ccc(Cl)c(Cl)c2)cc1)N1CCCC1  -34.8%
82. COc1ccc(CNC(=O)CN(Cc2ccc(C)cc2)C(=O)c2csnn2)cc1  -36.1%
83. O=C(N[C@H]1CCC(=O)N([C@H](CSc2ccccc2)Cc2ccccc2)CC1)OCc1ccccc1  -37.6%
84. COc1ccc(OC)c(S(=O)(=O)N2CCC(C(=O)Nc3cccc(C)c3)CC2)c1  -38.5%
85. COc1ccc(C(=O)Nc2ncc3c(n2)-c2ccccc2CC3)cc1  -40.5%
86. O=C(NCC1CCCO1)C1CCN(C2CCN(Cc3ccco3)CC2)CC1 (stereo not drawn)  -51%
87. O=C(O)c1cn(Cc2ccccc2)c2ccccc2c1=O  -79.3%
